Results as given in the supplement of paper PMC11417369.
Some of the results follow.

system: PfHDP1 homeodomain (GST-tagged); test: gcPBM binding intensity (ln(normalized median fluorescence intensity)); higher = stronger DNA binding
Summary of the method: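 The highest Masliner-normalised natural-log median intensity across replicate spots of either probe orientation is reported as binding intensity. GST-tagged P. falciparum DNA-binding domains expressed in E. coli were applied for 1 h to an Agilent 4 × 180k array of primer-extended double-stranded 36-bp intergenic genomic probes plus negative controls, and bound protein was detected with Alexa488 anti-GST antibody and scanned at 488 nm.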

| Sequence | gcPBM binding intensity (ln) |
| --- | --- |
| TCAAATTATATGAGTGGTACACATGTAATATTTTTA [XGTACX_site6518] | 6.01 |
| AAAAAACGACCTTACGCACACATTATTCTAGTCTAT [CACACA_site2349] | 7.11 |
| TTACATTTTTTATGTTTTTTTATATTGCAAAAAAAT [CACACA_negctrl_site1050] | 7.86 |
| ATATTTTGTATAATCACACACACTATTATTAAATAG [CACACA_site2612] | 6.49 |
| ATATATATATATATATGTACTTATTAAGATTAAAAA [XGTACX_site61] | 9.46 |
| AAAAAAATATATATTACACACATATATACATATATA [CACACA_site3125] | 6.68 |
| ATATATATATATATTTGTACATATATATAATTTTTC [XGTACX_site7460] | 9.14 |
| AAAATAAAAAAAAAAGGTACACAAAAAGATGGACTG [XGTACX_site2650] | 6.49 |
| TATAATTGTCTTCACACACACATATATATATATATA [CACACA_site2743] | 9.45 |
| TTTTTTTTTTAAAAAACACACACCTAAACAAGATAT [CACACA_site875] | 6.95 |
| CGCATACACCAACACACACACACATATATATATATA [CACACA_site635] | 9.38 |
| TATAAATACTTATATGTACACACATATAGATATATA [CACACA_site8819] | 6.39 |
| ATCTAATATATATTCTGTACGTAATTAAAACCACAA [XGTACX_site3152] | 6.87 |
| AGAAGTCTGTAATGATGTACTGGAAAAATATAAATA [XGTACX_site8148] | 6.48 |
| TAGATCTTATTTACAAGTACATATATACGATTCATT [XGTACX_site7578] | 6.31 |
| ATGTTGTCAAAAAAATGTACTTACATAATATTTTCC [XGTACX_site1732] | 6.27 |
| TTTATTTTTTGTGGCACACAGAAGAAACAAGAACAA [CACACA_site1696] | 7.16 |
| AATGAATAATTATTTTGTACATAATATTATATTTAT [XGTACX_site5350] | 6.51 |
| TAAATGTGAACAATAGAAGTAATAAGAAGAATAAAA [CACACA_negctrl_site1080] | 6.63 |
| AATAGTAATTTGAATACACACAATAATATATTTATA [CACACA_site7055] | 6.44 |
| TAACACCAAACTAAATGTACACACATACATAAATAT [XGTACX_site2201] | 6.67 |
| TCTTATATGATATTTATTTATTTATTTATTTATTCA [GTGCAC_negctrl_site686] | 6.12 |

| Sequence | gcPBM binding intensity (ln) |
| --- | --- |
| AAAATGAAAATGAAAATGAAAATGGGAAAATGTCAA [TGCATGCA_negctrl_site488] | 6.62 |
| TATAATTATATGTATACACACACATACATTTACATA [CACACA_site9061] | 7.18 |
| CATATATATCGTAATGCACACATGTAATTTCATAAT [CACACA_site811] | 10.7 |
| TTATATATAAGTTTATTCATTTTTTTTTTTTTTTTT [XGTACX_negctrl_site573] | 6.42 |
| TAAATAAAAAAGAATACACACAGCATGCATAAATAT [CACACA_site237] | 7.43 |
| TATTGTTTTTTTTACTGTACACAAGTAAATGAAAAA [XGTACX_site790] | 6.27 |
| AAAAAATTCAAAAGGTGTACAACATTATATTATTCC [XGTACX_site5118] | 7.1 |
| TCTGTATATTATTCAAGTACACAATATAAATATAAA [XGTACX_site7241] | 6.29 |
| GATAACTTTTTTCTCACACACAAATATTTTAATCAT [CACACA_site7685] | 6.67 |
| AAAAATAAAAAAATAAATACGTATACATATATAATA [TGCATGCA_negctrl_site551] | 6.47 |
| GAACAAATTAAATAGGTGCATTAACATGTTCTATTT [GTGCAC_site9729] | 10.1 |
| GTATATAATTAAAGTTGTACCCTTAAAAAAGGGAAA [XGTACX_site7278] | 5.81 |
| ATAAGCTCATGCAGGTGTACACAAAAAGAAAAAAAA [XGTACX_site2433] | 6.64 |
| ATAATGAAAAGGAACATACACACCCCATATAAATAT [CACACA_site3442] | 7.39 |
| GGAATAGTAATATATACACACAAATACATATATATA [CACACA_site67] | 6.78 |
| TTTATTTTTTAATGATGTACTATTTATCCAGAAAAG [XGTACX_site7750] | 6.19 |
| ACTTATACAAAATGTGCATGTTATATTTACAATAAT [TGCATGCA_site108] | 8.39 |
| AAATTAAATGTAAGCACACATAAATTATACTCATAT [CACACA_site5782] | 6.54 |
| ACATATAAATAAATAAATATATATATATATATATAT [GTGCAC_negctrl_site378] | 9.32 |
| TTTTTATAACTATATTATATAACTTTTGTACGAACT [CACACA_negctrl_site1423] | 6.3 |
| TATTTACACCTAATCACAAATAAAATAAAATCAAAT [CACACA_negctrl_site531] | 6.77 |
| GATAAGGTATTCAAATGTACAAAATGTTTTATATAA [XGTACX_site6863] | 6.35 |
